Screen size: about 150,000 compounds; about 540 (0.36%) showed an effect of 50% or more. Some of the results follow.

In the test the test system is Plasmodium falciparum. In words: Primary screen in NF54 nanoGlo assay, in single point, at 2uM, 72h; a lower Z score goes with more inhibition. It is filed as functional, Erythrocyte. Conditions: timepoint 72 hour.
By % Inhibition is commonly meant the change of the read-out against control, counted positive when it falls. Regarding `COc1ccc(OC)c([C@@H]2CCCN2C(=O)CN2CCN(CC(=O)Nc3c(C)cccc3C)CC2)c1`, the “% Inhibition” value is 4% and the Z score is reported as -0.58.
For `O=C(NCc1ccccn1)N1CCCCCO1`, in that order: -11% and 1.83.
For `N#Cc1c(F)cccc1N1CCCC[C@@H]1Cn1cncn1`, in that order: 2% and -0.36.
Take `CCc1ccccc1NC(=O)c1ncn2c1C(=O)N(C1CC1)[C@](C)(C(=O)NC1CCCC1)C2`: the “% Inhibition” value is -6% and the Z score is listed as 0.58.
For `COc1cc2c(cc1CN1CC[C@H](OC)C1)OCCCO2`, in that order: -3% and 0.36.
`O=C(c1ccncc1)N1CCC[C@H](n2cc(-c3nc(C4CC4)no3)nn2)C1`: the “% Inhibition” value stood at 5% and the Z score is -0.59.
For `O=C(Nc1ccc(Cl)cc1)c1cccc(-c2cnc3ccccc3c2)c1`, in that order: 2% and -0.35.
For `CCCCn1cnc2c1c(=O)n(Cc1nc3ccccc3s1)c(=O)n2CCC`, in that order: -15% and 2.17.
For `COc1ccc(CC(=O)N2C3COCC2C3)nc1`, in that order: 33% and -3.69.
For the compound `COc1ccccc1CC1(O)CCN(C(=O)NCC[C@H]2CCC(=O)N2)CC1`, the “% Inhibition” value was found to be 6% and the Z score is on record as -0.82.
For `CC(C)CN(CC(C)C)c1nnc(NC(=O)NCc2ccccc2)s1`, the “% Inhibition” value is reported as -3% and the Z score is reported as 0.57.
As for `CCn1c(C2CCN(C(=O)Cc3cccs3)CC2)nn(CCOC)c1=O`, the “% Inhibition” value is listed as -3% and the Z score is on record as 0.33.
For `CCC1(CC)CCCN(CCC(=O)O)CC1`, in that order: -15% and 2.38.
For `CCN(c1cccc(C)c1)[C@@H](C(=O)NC1CCCCC1)c1ccc(Cl)cc1`, in that order: -11% and 1.72.
On to `Cc1cnc(C(=O)N2CCCCC[C@H]2c2nnc(-c3ccccc3)o2)cn1`, for which the “% Inhibition” value is given as -13% and the Z score is given as 2.42.
For `Cc1nc2ccc(NC(=O)Cc3n[nH]c(=O)c4ccccc34)cc2s1`, in that order: -13% and 1.11.
Take `O=C(CC1CCCC1)NCc1ccccc1-c1ccsc1`: the “% Inhibition” value is recorded as 6% and the Z score is given as -1.19.
For `O=C(Cc1cccc(OC(F)(F)F)c1)NC[C@H](O)C1CC1`, in that order: -11% and 1.42.
As to `Cc1ccc(C(=O)N(C)C)cc1OC(=O)c1ccc2c(c1)COC2`, the “% Inhibition” value is recorded as -13% and the Z score was determined as 1.45.
In the case of `Cc1ncsc1CCc1ncnn1C(C)(C)C`, the “% Inhibition” value is recorded as -3% and the Z score stood at 0.48.
For `O=S(=O)(c1ccccc1)N1CC[C@@]2(CO)CN(Cc3ccccc3)C[C@H]2C1`, in that order: -6% and 0.73.
Turning to `CCN1CCC[C@H](NC(=O)c2cc(C(C)C)[nH]n2)C1`, the “% Inhibition” value amounted to 3% and the Z score is -0.35.
Turning to `CC1CCN(C(=O)N2C[C@H](C(N)=O)[C@@H](c3ccccc3)C2)CC1`, the “% Inhibition” value is listed as -4% and the Z score is 0.58.
As to `COc1ccc(-c2noc(NCC3CCN(Cc4ccccc4F)CC3)n2)cc1`, the “% Inhibition” value is -29% and the Z score was found to be 2.54.
For `Cc1ccc(Oc2cnn(-c3ccc(F)cc3)c(=O)c2Nc2cccc(C(=O)NCc3cccnc3)c2)cc1`, in that order: 6% and -1.15.
Turning to `Cc1ccc(NC(=O)N(C)CCO)c(F)c1`, the “% Inhibition” value is -7% and the Z score came to 0.66.
For `CNC(=O)C1CCC(NCc2c(C)nn(C)c2N(C)C)CC1` (stereo unspecified), in that order: -2% and 0.3.
For `O=C(c1cn(Cc2ccccn2)nn1)N(C1CCCCC1)C1CC1`, in that order: -8% and 1.51.
For the compound `N#Cc1cccc(C#N)c1NC[C@H]1CCCO1`, the “% Inhibition” value was determined as 31% and the Z score is -3.98.
Regarding `C[C@@H](NC(=O)c1cc[nH]n1)c1cc2ccccc2o1`, the “% Inhibition” value stood at 7% and the Z score is reported as -0.74.
For `CN=C(NCc1cc(C)c(F)c(C)c1)NCc1cnn(C)c1`, in that order: -16% and 1.84.
For `O=C(CCCS(=O)(=O)N1CCCC1)N1CCCCCO1`, in that order: 7% and -1.2.
For `CS(=O)(=O)N1CCN(C(=O)N2C3CCC2CC(Oc2ccncc2)C3)C1=O` (stereo unspecified), in that order: -15% and 1.7.
As for `Cc1sc(C(=O)N2CCCC2)c2ncnc(NCc3cccs3)c12`, the “% Inhibition” value is listed as -15% and the Z score was 2.6.
Turning to `CCCN(C(=O)Nc1cc(Cl)ccc1OC)c1nc(-c2ccc(C3CCCCC3)cc2)cs1`, the “% Inhibition” value is given as -14% and the Z score is given as 2.04.
For `COc1ccccc1CNC(=O)C1CCCCC1C(=O)N1CCCC1` (stereo unspecified), in that order: -10% and 1.25.
For `Cc1[nH]ccc1C(=O)N1CCC[C@@]2(CCS(=O)(=O)C2)C1`, in that order: -6% and 1.03.
On to `Cc1c(C(=O)N2C[C@H]3CC[C@@H](C2)N(CC2CC2)C3)cnn1C`, for which the “% Inhibition” value is -11% and the Z score turned out to be 1.95.
For `Cc1cc(CCNC(=O)[C@H]2CC[C@H](Nc3ncccn3)CC2)nn1C`, in that order: -5% and 0.72.
For `O=C(CC[C@H]1CCCOC1)Nc1cccc(Cl)c1O`, in that order: 2% and -0.31.
As to `CC(=O)NCCc1noc([C@@H](c2ccccc2)C2CC2)n1`, the “% Inhibition” value is -2% and the Z score is on record as 0.31.
For `Cc1nsc(OCc2ccccc2F)n1`, in that order: -1% and 0.11.
For `CCOC1(C)CN(C(=O)c2ncccc2OC(C)C)C1`, in that order: -12% and 1.87.
